Measured values taken from PubChem BioAssay AID1508642 (National Center for Advancing Translational Sciences (NCATS), 2021).
About 200 (0.47%) of roughly 43,000 compounds were called active. Not shown: some 12% with an inconclusive outcome. Calls follow the shape of the dose curve; as a rule, active = well fitted cell-killing curve with a large enough effect; inconclusive = small, poorly fitted or top-dose-only effect, or effect the other way; inactive = flat fitted curve, though single readings scatter. This is one part of the list.
% is scaled to controls: 0 for no effect and ±100 for the full control effect.

Assay: Cell viability qHTS assay in S16 Pmp22-F2sN cells; also: nearly all actives have a fitted effect of over 65% in size
Details: S16 Pmp22-F2sN Schwann cells viability, CellTiter-Glo, 24 h; series mostly up to 57.5 µM; activity change, negative = cytotoxicity: at the top concentration
Outline: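 S16 Pmp22-F2sN Schwann cells (500-1,000/well) in phenol-red-free DMEM with 10% FBS received 23 nL compound by pin tool for 24 h at 37 °C. Viability was then read as CellTiter-Glo luminescence after 15 min at room temperature.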
For `COc1ccc(Cl)cc1NC(=O)NCCc1c(C)nn(C)c1C`, the “activity change, negative = cytotoxicity” value was inactive: 0.345%.
In the case of `CCc1cccc(C)c1NC(=O)c1ccc2c(c1)CCN2S(=O)(=O)CC`, the “activity change, negative = cytotoxicity” value is reported as inactive: 2.74%.
In the case of `O=C(CSC1=Nc2ccccc2N=C(c2ccc(F)cc2)C1)Nc1ccc(Cl)cc1`, the “activity change, negative = cytotoxicity” value is reported as inactive: 15.2%.
In the case of `COc1ccc(N2CCN(C(=O)C(C)n3c(=O)cc(C(F)(F)F)c4c(C)nn(C)c43)CC2)cc1` (configuration not stated), the “activity change, negative = cytotoxicity” value is reported as inactive: 17.3%.
With `CCOC(=O)c1c(C)[nH]c(C)c1S(=O)(=O)NCC(=O)NCc1ccccc1Cl` the “activity change, negative = cytotoxicity” value was inactive: -27.8%.
For `COc1cc(C(CC(=O)Nc2cc(C)ccn2)N2Cc3ccccc3C2=O)cc(OC)c1OC` (configuration not stated), the “activity change, negative = cytotoxicity” value was inactive: 1.44%.
In the case of `CCN1C(=O)c2ccccc2S(=O)c2ccc(C(=O)N3CCN(c4ccccc4OC)CC3)cc21` (configuration not stated), the “activity change, negative = cytotoxicity” value is reported as inactive: 16.1%.
In the case of `COc1cccc(CNC(=O)CCCCCn2c(=O)[nH]c3cc(OC)c(OC)cc3c2=O)c1`, the “activity change, negative = cytotoxicity” value is reported as inactive: -7.83%.
For `CCOc1ccccc1C(=O)Nc1ccc(S(=O)(=O)Nc2ncccn2)cc1`, the “activity change, negative = cytotoxicity” value was inactive: -17.1%.
For `Cc1cccc(Cc2c(C)nc3nc(SCc4ccccc4F)nn3c2C)c1`, the “activity change, negative = cytotoxicity” value was inactive: 14.1%.
With `Cc1cc2c(n1-c1ccc(C(=O)NCc3ccc(OC(C)C)cc3)cc1)CCCC2` the “activity change, negative = cytotoxicity” value was inactive: -18.6%.
For `COc1ccccc1NC(=O)CSc1oc(-c2ccccc2)nc1S(=O)(=O)c1ccccc1`, the “activity change, negative = cytotoxicity” value was inactive: -25.4%.
In the case of `COc1ccc2c(c1)c1c(c(=O)n(-c3cccc(C)c3)c(=O)n1CC(=O)NCC1CCCO1)n2C` (configuration not stated), the “activity change, negative = cytotoxicity” value is reported as inactive: 3.9%.
In the case of `COc1ccccc1CNC(=O)CCCn1c(=O)c2ccccc2n(Cc2ccccc2C#N)c1=O`, the “activity change, negative = cytotoxicity” value is reported as inactive: -0.476%.
In the case of `CC(C)c1cc(-c2nc(-c3ccc(Br)cc3)no2)n[nH]1`, the “activity change, negative = cytotoxicity” value is reported as inactive: -28.8%.
In the case of `COc1ccc2[nH]c(=O)c(CN(C(=O)c3cccc(Cl)c3)c3cccc(C)c3)cc2c1`, the “activity change, negative = cytotoxicity” value is reported as inactive: -0.168%.
In the case of `CCN1CCN(c2ncc3c(n2)CCN(Cc2ccc(OC)c(OC)c2)C3)CC1`, the “activity change, negative = cytotoxicity” value is reported as inactive: 8.96%.
In the case of `CCCN1CCN(CCNC(=O)Nc2ccccc2OCC)CC1`, the “activity change, negative = cytotoxicity” value is reported as inactive: 10.2%.
For `Cc1cc2c(n1-c1ccc(C(=O)NCCc3ccccc3)cc1)CCC(C)C2` (configuration not stated), the “activity change, negative = cytotoxicity” value was inactive: -3.63%.
For `CCCN(Cc1cccs1)C(=O)Nc1ccc(Br)cc1F`, the “activity change, negative = cytotoxicity” value was inactive: -18.5%.
In the case of `Cc1cccc(NS(=O)(=O)c2ccc3c(c2)OCC(C(=O)N2CCCC2)O3)c1C` (configuration not stated), the “activity change, negative = cytotoxicity” value is reported as inactive: 1.11%.
For `CCc1nn(CCCC(=O)NCc2cc(Br)ccc2OC)c(=O)c2cc3occc3n12`, the “activity change, negative = cytotoxicity” value was inactive: -9.2%.
For `COc1cccc(C(=O)Nc2cccc(C(=O)OCc3cc(=O)n4c5c(sc4n3)CCCC5)c2)c1`, the “activity change, negative = cytotoxicity” value was inactive: -6.81%.
In the case of `CCOc1ccc(NC(=O)c2cc3cc4cc(OC)ccc4nc3s2)cc1`, the “activity change, negative = cytotoxicity” value is reported as inactive: 0.675%.
With `Cc1ccc(S(=O)(=O)c2cn(CC(=O)Nc3ccc4c(c3)OCO4)c3ccccc3c2=O)cc1C` the “activity change, negative = cytotoxicity” value was inactive: -0.312%.
With `COc1ccccc1-n1c(=O)c2c3c(sc2n(Cc2ccccc2F)c1=O)CN(C(C)=O)CC3` the “activity change, negative = cytotoxicity” value was inactive: 21.7%.
In the case of `O=C(NCCS(=O)(=O)N1CCN(c2ccc(F)cc2)CC1)C1CC(=O)N(c2ccccc2)C1` (configuration not stated), the “activity change, negative = cytotoxicity” value is reported as inactive: 7.31%.
For `CCOC(=O)CSc1nc2c(sc3cccc(F)c32)c(=O)n1Cc1ccc(OC)cc1`, the “activity change, negative = cytotoxicity” value was inactive: -0.353%.
With `COc1ccc2cc(CNc3ccc(C)cc3)c(=O)n(CC(=O)Nc3cccc(C(F)(F)F)c3)c2c1` the “activity change, negative = cytotoxicity” value was inactive: 11%.
In the case of `Cc1ccc(-c2nnc(Nc3ccc(O)cc3)c3ccccc23)cc1S(=O)(=O)N1CCCCC1`, the “activity change, negative = cytotoxicity” value is reported as inactive: -5.58%.
With `O=c1c2cccnc2n(Cc2cccc(F)c2)c(=O)n1Cc1ccccc1Cl` the “activity change, negative = cytotoxicity” value was inactive: 29.9%.
In the case of `Cc1ccc(CN2C(=O)N(c3ccccc3)C(=O)C2CC(=O)Nc2ccccc2)cc1` (configuration not stated), the “activity change, negative = cytotoxicity” value is reported as inactive: 7.52%.
For `COc1cc(OC)c(N(C)C(=O)Cn2ncc3c(=O)oc4ccccc4c32)cc1Cl`, the “activity change, negative = cytotoxicity” value was inactive: -0.129%.
For `COCCNC(=O)c1c(NC(=O)c2cc(=O)c3cc(Cl)ccc3o2)sc2c1CCCC2`, the “activity change, negative = cytotoxicity” value was inactive: -2.5%.
In the case of `COC(=O)c1ccccc1NC(=O)N1CCC(n2c(C)nc3cccnc32)CC1`, the “activity change, negative = cytotoxicity” value is reported as inactive: -3.92%.
In the case of `Cc1ccc(NC(=O)N2CCN(C)c3ncccc32)cc1C`, the “activity change, negative = cytotoxicity” value is reported as inactive: 12.1%.
With `O=C(CN1C(=O)COc2ccc(S(=O)(=O)N3CCCCCC3)cc21)NCCc1ccccc1` the “activity change, negative = cytotoxicity” value was inactive: 7.21%.
With `CC(=O)N1CCN(c2csc3ccc(Br)cc3c2=O)CC1` the “activity change, negative = cytotoxicity” value was inactive: 2.79%.
For `Cc1ccc(CNC(=O)c2cc(=O)c3cc(C)cc(C)c3o2)cc1`, the “activity change, negative = cytotoxicity” value was inactive: 10.2%.
With `COC(=O)c1ccccc1NC(=O)c1cnc2sc(N3CCOCC3)nn2c1=O` the “activity change, negative = cytotoxicity” value was inactive: 7.63%.
For `CCC(C)NC(=O)CSc1nc(-c2ccc(F)cc2)cc(C(F)(F)F)n1` (configuration not stated), the “activity change, negative = cytotoxicity” value was inactive: 28.6%.
In the case of `CCc1cccc(C)c1NC(=O)Cn1cc2c(n1)CCCCC2`, the “activity change, negative = cytotoxicity” value is reported as inactive: -13.2%.
For `COc1ccccc1NC(=O)Cn1nnc(C(=O)Nc2ccccc2Br)c1N`, the “activity change, negative = cytotoxicity” value was inactive: 15.1%.
In the case of `CCOc1ccc(NC(=O)CCn2cccn2)cc1`, the “activity change, negative = cytotoxicity” value is reported as inactive: 2.41%.
In the case of `CCCCOC(=O)/C(C#N)=C\c1ccc(-c2ccc(Cl)cc2)o1`, the “activity change, negative = cytotoxicity” value is reported as inactive: 3.76%.
In the case of `CCOc1ccc(NC(=O)C2CCN(S(=O)(=O)c3c(C)noc3/C=C/c3ccco3)CC2)cc1`, the “activity change, negative = cytotoxicity” value is reported as inactive: 7.02%.
In the case of `CCOC(=O)c1ccccc1NC(=O)N1CC(C)Oc2ccc(C)cc21` (configuration not stated), the “activity change, negative = cytotoxicity” value is reported as inactive: 0.675%.
For `COc1cc(NC(=O)C(=O)Nc2ccc3nc4n(c(=O)c3c2)CCCCC4)cc(OC)c1OC`, the “activity change, negative = cytotoxicity” value was inactive: 20.1%.
For `CCc1ccc(CN(C(=O)Nc2cccc(Cl)c2)c2ccccn2)cc1`, the “activity change, negative = cytotoxicity” value was inactive: 8.79%.
With `CCOC(=O)Cn1c(=O)oc2cc(S(=O)(=O)NC(C)c3ccccc3)ccc21` (configuration not stated) the “activity change, negative = cytotoxicity” value was inactive: 7.9%.
With `COc1ccccc1CNC(=O)c1ccc(-n2c(C)cc3c2CCCC3)cc1` the “activity change, negative = cytotoxicity” value was inactive: -20%.
With `Cc1c(Cl)cccc1NS(=O)(=O)c1ccc(NS(=O)(=O)c2ccc3c(c2)OCCO3)cc1` the “activity change, negative = cytotoxicity” value was inactive: 2.92%.
With `COc1ccc(Cl)cc1NC(=O)c1cnc(N2CCCCC2)c2ccccc12` the “activity change, negative = cytotoxicity” value was inactive: -6.67%.
In the case of `O=C(c1ccccc1F)N1c2nc(-c3ccco3)nn2C2(CCCCC2)[C@@H]2CCCC[C@@H]21`, the “activity change, negative = cytotoxicity” value is reported as inactive: 7.88%.
For `COCCNC(=O)c1cnn(-c2cccc(C)c2)c1-n1cccc1`, the “activity change, negative = cytotoxicity” value was inactive: -1.58%.
For `COc1cc2ncc3c(-c4ccccc4)nn(CC(=O)NC4CCCCC4)c3c2cc1OC`, the “activity change, negative = cytotoxicity” value was inactive: 0.745%.
In the case of `CC1CCN(S(=O)(=O)c2cc(C(=O)NCc3ccccc3)n(C)c2)CC1`, the “activity change, negative = cytotoxicity” value is reported as inactive: 4.71%.
For `Cc1nc(N2CCCC2)ncc1C(=O)NCc1ccc(F)cc1`, the “activity change, negative = cytotoxicity” value was inactive: 2.64%.
With `Cc1cn2c(=O)c(S(=O)(=O)Nc3ccc(N4CCOCC4)cc3)c(C)nc2s1` the “activity change, negative = cytotoxicity” value was inactive: 1.19%.
With `Cc1cc(N2CCC(C(=O)Nc3ccccc3Cl)CC2)n2nc(C)c(-c3ccc(Cl)cc3)c2n1` the “activity change, negative = cytotoxicity” value was inactive: 2.34%.
In the case of `Fc1cccc(-c2nnn3c2nc(NCc2ccc4c(c2)OCO4)c2ccccc23)c1`, the “activity change, negative = cytotoxicity” value is reported as inactive: 5.48%.
With `COc1ccc(C2=C(C)C(N3CCN(c4ccc(OC)cc4)CC3)=NS2(=O)=O)cc1` the “activity change, negative = cytotoxicity” value was inactive: 6.88%.
